Some of the results follow. The full chains were built here from the parent and the listed change. Values near 0.05 are background.
B1: TEV protease; numbered along this chain (parent)
chain: MGESLFKGPRDYNPISSSICHLTNESDGHTTSLYGIGFGPFIITNKHLFRRNNGTLVVQSLHGVFKVKDTTTLQQHLVDGRDMIIIRMPKDFPPFPQKLKFREPQREERICLVTTNFQTKSMSSMVSDTSCTFPSGDGIFWKHWIQTKDGQCGSPLVSTRDGFIVGIHSASNFTNTNNYFTSVPKNFMELLTNQEAQQWVSGWRLNADSVLWGGHKVFMVKPEEPFQPVKEATQL

Variants of: B1
Assay: raw area under fraction-flipped curve 0-4 h after induction (AUC4h, not background-subtracted), DNA-recorder readout of cleavage of the substrate (dimensionless); higher = more cleavage of the substrate by the protease variant
Details: temperature: 34 °C; time window: 0-4 h after rhamnose induction
Experimental: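 In vivo DNA recorder in E. coli TOP10(DE3) ΔrhaA at 34 °C. Each TEVp single-site mutant (parent TEVp 0) is paired with a single-site variant of the 7-mer TEVs (canonical ENLYFQ|S). The substrate sits between flexible linkers in a Bxb1-sfGFP-TEVs-SsrA fusion, so cleavage stabilises Bxb1 and speeds flipping of a recombination array, read by NGS. The value is the raw area under the fraction-flipped curve over 0-4 h after rhamnose induction (AUC4h), with ≥20 reads per time point. It is not background-subtracted; inactive controls average about 0.047.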
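Further: Bxb1 expression induced with 0.2% (w/v) L-rhamnose at OD600 near 0.5, cultures sampled hourly, flipped fraction per protease–substrate barcode pair counted by paired-end Illumina sequencing.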

| Variant | area with substrate CNLYFQS | area with substrate DNLYFQS | area with substrate FNLYFQS | area with substrate GNLYFQS | area with substrate HNLYFQS | area with substrate INLYFQS | area with substrate KNLYFQS | area with substrate LNLYFQS | area with substrate MNLYFQS | area with substrate PNLYFQS | area with substrate RNLYFQS | area with substrate TNLYFQS | area with substrate VNLYFQS | area with substrate WNLYFQS | area with substrate NNLYFQS | area with substrate SNLYFQS | area with substrate YNLYFQS | area with substrate QNLYFQS |
| --- | --- | --- | --- | --- | --- | --- | --- | --- | --- | --- | --- | --- | --- | --- | --- | --- | --- | --- |
| MGESLFKGPRDYNPISSSICHLGNESDGHTTSLYGIGFGPFIITNKHLFRRNNGTLVVQSLHGVFKVKDTTTLQQHLVDGRDMIIIRMPKDFPPFPQKLKFREPQREERICLVTTNFQTKSMSSMVSDTSCTFPSGDGIFWKHWIQTKDGQCGSPLVSTRDGFIVGIHSASNFTNTNNYFTSVPKNFMELLTNQEAQQWVSGWRLNADSVLWGGHKVFMVKPEEPFQPVKEATQL [T23G] | 0.0793 | 0.0643 | 0.0446 | 0.0599 | 0.0647 | 0.0476 | 0.055 | 0.0547 | 0.0422 | 0.0616 | 0.07 | 0.0553 | 0.0551 | 0.0482 | – | – | – | – |
| MGESLFKGPRDYNPISSSICHLWNESDGHTTSLYGIGFGPFIITNKHLFRRNNGTLVVQSLHGVFKVKDTTTLQQHLVDGRDMIIIRMPKDFPPFPQKLKFREPQREERICLVTTNFQTKSMSSMVSDTSCTFPSGDGIFWKHWIQTKDGQCGSPLVSTRDGFIVGIHSASNFTNTNNYFTSVPKNFMELLTNQEAQQWVSGWRLNADSVLWGGHKVFMVKPEEPFQPVKEATQL [T23W] | 0.0665 | 0.083 | 0.0629 | – | 0.0679 | 0.0657 | 0.0675 | 0.0605 | 0.0605 | 0.0676 | 0.0408 | 0.0502 | 0.0717 | 0.0565 | 0.0629 | 0.0657 | 0.0592 | – |
| MGESLFKGPRDYQPISSSICHLTNESDGHTTSLYGIGFGPFIITNKHLFRRNNGTLVVQSLHGVFKVKDTTTLQQHLVDGRDMIIIRMPKDFPPFPQKLKFREPQREERICLVTTNFQTKSMSSMVSDTSCTFPSGDGIFWKHWIQTKDGQCGSPLVSTRDGFIVGIHSASNFTNTNNYFTSVPKNFMELLTNQEAQQWVSGWRLNADSVLWGGHKVFMVKPEEPFQPVKEATQL [N13Q] | 0.0891 | 0.0865 | – | – | 0.0633 | 0.0775 | 0.0707 | 0.0613 | 0.064 | 0.0624 | – | 0.066 | – | 0.067 | 0.0654 | 0.0673 | 0.0732 | – |
| MGESLFKGPRDYCPISSSICHLTNESDGHTTSLYGIGFGPFIITNKHLFRRNNGTLVVQSLHGVFKVKDTTTLQQHLVDGRDMIIIRMPKDFPPFPQKLKFREPQREERICLVTTNFQTKSMSSMVSDTSCTFPSGDGIFWKHWIQTKDGQCGSPLVSTRDGFIVGIHSASNFTNTNNYFTSVPKNFMELLTNQEAQQWVSGWRLNADSVLWGGHKVFMVKPEEPFQPVKEATQL [N13C] | 0.0723 | 0.0751 | 0.0652 | 0.0675 | 0.0657 | – | 0.0836 | 0.0718 | 0.0636 | 0.0801 | 0.0593 | 0.0538 | – | 0.0547 | 0.0575 | 0.0723 | 0.0704 | – |
| MGESLFKGPRDYNPISSSGCHLTNESDGHTTSLYGIGFGPFIITNKHLFRRNNGTLVVQSLHGVFKVKDTTTLQQHLVDGRDMIIIRMPKDFPPFPQKLKFREPQREERICLVTTNFQTKSMSSMVSDTSCTFPSGDGIFWKHWIQTKDGQCGSPLVSTRDGFIVGIHSASNFTNTNNYFTSVPKNFMELLTNQEAQQWVSGWRLNADSVLWGGHKVFMVKPEEPFQPVKEATQL [I19G] | 0.0641 | 0.0689 | 0.0611 | – | 0.0569 | – | 0.0575 | 0.05 | 0.0599 | 0.0603 | 0.0508 | 0.0581 | 0.0606 | 0.0603 | 0.0516 | – | 0.0569 | 0.0592 |
| MGESLFKGPRDYNPISSSICTLTNESDGHTTSLYGIGFGPFIITNKHLFRRNNGTLVVQSLHGVFKVKDTTTLQQHLVDGRDMIIIRMPKDFPPFPQKLKFREPQREERICLVTTNFQTKSMSSMVSDTSCTFPSGDGIFWKHWIQTKDGQCGSPLVSTRDGFIVGIHSASNFTNTNNYFTSVPKNFMELLTNQEAQQWVSGWRLNADSVLWGGHKVFMVKPEEPFQPVKEATQL [H21T] | 0.0553 | 0.0786 | 0.0668 | 0.0669 | 0.061 | 0.0795 | 0.0599 | 0.0629 | 0.0569 | 0.0687 | 0.058 | 0.063 | 0.0714 | 0.0551 | 0.0614 | 0.0483 | 0.0622 | – |
| MGESLFKGPRDYNPISSSICELTNESDGHTTSLYGIGFGPFIITNKHLFRRNNGTLVVQSLHGVFKVKDTTTLQQHLVDGRDMIIIRMPKDFPPFPQKLKFREPQREERICLVTTNFQTKSMSSMVSDTSCTFPSGDGIFWKHWIQTKDGQCGSPLVSTRDGFIVGIHSASNFTNTNNYFTSVPKNFMELLTNQEAQQWVSGWRLNADSVLWGGHKVFMVKPEEPFQPVKEATQL [H21E] | 0.0517 | 0.064 | 0.062 | 0.0659 | 0.0609 | 0.0675 | 0.058 | 0.0866 | 0.072 | 0.0618 | 0.0419 | 0.0547 | 0.0404 | 0.0605 | 0.0525 | 0.081 | 0.061 | – |
| MGESLFKGPRDYNPISSSICILTNESDGHTTSLYGIGFGPFIITNKHLFRRNNGTLVVQSLHGVFKVKDTTTLQQHLVDGRDMIIIRMPKDFPPFPQKLKFREPQREERICLVTTNFQTKSMSSMVSDTSCTFPSGDGIFWKHWIQTKDGQCGSPLVSTRDGFIVGIHSASNFTNTNNYFTSVPKNFMELLTNQEAQQWVSGWRLNADSVLWGGHKVFMVKPEEPFQPVKEATQL [H21I] | 0.0758 | 0.055 | 0.0548 | 0.0535 | 0.057 | – | – | 0.0906 | 0.0583 | – | – | 0.0648 | 0.0577 | 0.0596 | 0.056 | – | 0.0674 | 0.0647 |

Source: the supplement of paper PMC12217912
